Source: the supplement of paper PMC4604168 (melanoma cell lines)
Some of the results follow. Most values come without repeats; read them as rough.

Key:
Assay in all cases: cell count relative to DMSO control; melanoma cells; higher = more viable cells
Details in all cases: library dose: standard library concentration; 72 h
G361 = system: G361
IPC-298 = system: IPC-298
IST-MEL1 = system: IST-MEL1
LB2518-MEL = system: LB2518-MEL
LOXIMVI = system: LOXIMVI
MEL-HO = system: MEL-HO
MZ2-MEL = system: MZ2-MEL
MeWo = system: MeWo
RPMI7951 = system: RPMI7951
RVH-421 = system: RVH-421
SkMel28 = system: SkMel28
SkMel2 = system: SkMel2
SkMel30 = system: SkMel30
SkMel5 = system: SkMel5
UACC257 = system: UACC257
UACC62 = system: UACC62
WM115 = system: WM115
WM1716 = system: WM1716
WM1745 = system: WM1745
WM3526 = system: WM3526
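Note: cells treated in 1,536-well plates, then fixed and DAPI-stained, with nuclei counted from automated high-throughput microscope images.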

SMILES: Cn1nnc2c(C(N)=O)ncn2c1=O [temozolomide] + C/C(O)=C(\C#N)C(=O)Nc1cc(Br)ccc1Br [LFM-A13] (first compound 10 µM, partner dose 10 µM)
- cell count (G361): 88.3%
- cell count (IPC-298): 84.4%
- cell count (IST-MEL1): 81.9%
- cell count (LB2518-MEL): 102%
- cell count (LOXIMVI): 99.2%
- cell count (MEL-HO): 84.3%
- cell count (MZ2-MEL): 26.7%
- cell count (MeWo): 97.8%
- cell count (RPMI7951): 79.8%
- cell count (RVH-421): 85.9%
- cell count (SkMel28): 41.5%
- cell count (SkMel2): 122%
- cell count (SkMel30): 66.1%
- cell count (SkMel5): 104%
- cell count (UACC257): 95.7%
- cell count (UACC62): 81.8%
- cell count (WM115): 109%
- cell count (WM1716): 116%
- cell count (WM1745): 94.2%
- cell count (WM3526): 83.5%

SMILES: OCCn1cc(-c2cnc3nnn(Cc4ccc5ncccc5c4)c3n2)cn1 + C/C(O)=C(\C#N)C(=O)Nc1cc(Br)ccc1Br [LFM-A13] (first compound 5 µM, partner dose 10 µM)
- cell count (G361): 87.8%
- cell count (IPC-298): 101%
- cell count (IST-MEL1): 93.9%
- cell count (LB2518-MEL): 79.8%
- cell count (LOXIMVI): 74.4%
- cell count (MEL-HO): 85.9%
- cell count (MZ2-MEL): 95.3%
- cell count (MeWo): 109%
- cell count (RPMI7951): 95.2%
- cell count (RVH-421): 107%
- cell count (SkMel28): 86.5%
- cell count (SkMel2): 92.8%
- cell count (SkMel30): 102%
- cell count (SkMel5): 104%
- cell count (UACC257): 110%
- cell count (UACC62): 108%
- cell count (WM115): 93.2%
- cell count (WM1716): 116%
- cell count (WM1745): 97.9%
- cell count (WM3526): 105%

SMILES: CC(C)(C)c1cnc(CSc2cnc(NC(=O)C3CCNCC3)s2)o1 + C/C(O)=C(\C#N)C(=O)Nc1cc(Br)ccc1Br [LFM-A13] (first compound 0.05 µM, partner dose 10 µM)
- cell count (G361): 79.1%
- cell count (IPC-298): 119%
- cell count (IST-MEL1): 87.7%
- cell count (LB2518-MEL): 79.2%
- cell count (LOXIMVI): 87.8%
- cell count (MEL-HO): 90.8%
- cell count (MZ2-MEL): 88.6%
- cell count (MeWo): 91.4%
- cell count (RPMI7951): 39%
- cell count (RVH-421): 108%
- cell count (SkMel28): 58.3%
- cell count (SkMel2): 89%
- cell count (SkMel30): 69.7%
- cell count (SkMel5): 56.5%
- cell count (UACC257): 91%
- cell count (UACC62): 52.5%
- cell count (WM115): 70.5%
- cell count (WM1716): 78%
- cell count (WM1745): 81.2%
- cell count (WM3526): 88.6%

SMILES: C/C(O)=C(\C#N)C(=O)Nc1cc(Br)ccc1Br + c1cc(-c2cnn3cc(-c4ccc(OCCN5CCCCC5)cc4)cnc23)ccn1 [Dorsomorphin] (first compound 10 µM, partner dose 2 µM)
- cell count (G361): 72.9%
- cell count (IPC-298): 88.6%
- cell count (IST-MEL1): 91.5%
- cell count (LB2518-MEL): 62.1%
- cell count (LOXIMVI): 75.5%
- cell count (MEL-HO): 90.5%
- cell count (MZ2-MEL): 70.2%
- cell count (MeWo): 74.6%
- cell count (RPMI7951): 88.9%
- cell count (RVH-421): 99.9%
- cell count (SkMel28): 92.9%
- cell count (SkMel2): 94.5%
- cell count (SkMel30): 112%
- cell count (SkMel5): 71.8%
- cell count (UACC257): 76.6%
- cell count (UACC62): 88.1%
- cell count (WM115): 69.1%
- cell count (WM1716): 94.3%
- cell count (WM1745): 71.2%
- cell count (WM3526): 90.2%

SMILES: N#CC[C@H](C1CCCC1)n1cc(-c2ncnc3[nH]ccc23)cn1 [ruxolitinib] + N.N.[Cl][Pt][Cl] [cisplatin] (first compound 5 µM, partner dose 8 µM)
- cell count (G361): 15.5%
- cell count (IPC-298): 44.7%
- cell count (IST-MEL1): 53.7%
- cell count (LB2518-MEL): 39.9%
- cell count (LOXIMVI): 23.3%
- cell count (MEL-HO): 69.4%
- cell count (MZ2-MEL): 27.9%
- cell count (MeWo): 69.4%
- cell count (RPMI7951): 12.8%
- cell count (RVH-421): 28.9%
- cell count (SkMel28): 7.82%
- cell count (SkMel2): 5.22%
- cell count (SkMel30): 94.5%
- cell count (SkMel5): 66.4%
- cell count (UACC257): 72.6%
- cell count (UACC62): 61.2%
- cell count (WM115): 66.8%
- cell count (WM1716): 67.1%
- cell count (WM1745): 47%
- cell count (WM3526): 91.9%

SMILES: COc1ccc2c(c1)CCC1C2CCC2(C)C(NCCCCCCN3C(=O)C=CC3=O)CCC12 (stereo not given) + C/C(O)=C(\C#N)C(=O)Nc1cc(Br)ccc1Br [LFM-A13] (first compound 2 µM, partner dose 10 µM)
- cell count (G361): 69.6%
- cell count (IPC-298): 92.1%
- cell count (IST-MEL1): 95.4%
- cell count (LB2518-MEL): 111%
- cell count (LOXIMVI): 79.2%
- cell count (MEL-HO): 86.7%
- cell count (MZ2-MEL): 79.4%
- cell count (MeWo): 61.2%
- cell count (RPMI7951): 20%
- cell count (RVH-421): 83.4%
- cell count (SkMel28): 65.7%
- cell count (SkMel2): 101%
- cell count (SkMel30): 76.7%
- cell count (SkMel5): 53.6%
- cell count (UACC257): 86.7%
- cell count (UACC62): 66.2%
- cell count (WM115): 98.1%
- cell count (WM1716): 83.8%
- cell count (WM1745): 88.7%
- cell count (WM3526): 84.2%

SMILES: Cc1cc(SCc2sc(-c3ccc(C(F)(F)F)c(F)c3)nc2C)ccc1OCC(=O)O + O=c1cc(-c2cccc3c2Sc2ccccc2S3)oc(N2CCOCC2)c1 [KU55933] (first compound 10 µM, partner dose 5 µM)
- cell count (G361): 73.9%
- cell count (IPC-298): 77.7%
- cell count (IST-MEL1): 85.8%
- cell count (LB2518-MEL): 94.5%
- cell count (LOXIMVI): 99%
- cell count (MEL-HO): 67.5%
- cell count (MZ2-MEL): 84%
- cell count (MeWo): 86.6%
- cell count (RPMI7951): 78.4%
- cell count (RVH-421): 108%
- cell count (SkMel28): 74%
- cell count (SkMel2): 97.5%
- cell count (SkMel30): 96.4%
- cell count (SkMel5): 91.5%
- cell count (UACC257): 110%
- cell count (UACC62): 90.3%
- cell count (WM115): 85.9%
- cell count (WM1716): 99.2%
- cell count (WM1745): 76.3%
- cell count (WM3526): 72.1%

SMILES: O=C(Oc1ccc([N+](=O)[O-])cc1)N1CCC(C(O)(c2ccc3c(c2)OCO3)c2ccc3c(c2)OCO3)CC1 + Cn1cc(/C=C2\C(=O)Nc3cccnc32)c2ccccc21 [GW441756] (first compound 5 µM, partner dose 2 µM)
- cell count (G361): 86.6%
- cell count (IPC-298): 92.9%
- cell count (IST-MEL1): 95.5%
- cell count (LB2518-MEL): 116%
- cell count (LOXIMVI): 108%
- cell count (MEL-HO): 99.7%
- cell count (MZ2-MEL): 82.5%
- cell count (MeWo): 94.8%
- cell count (RPMI7951): 70.1%
- cell count (RVH-421): 85%
- cell count (SkMel28): 91.3%
- cell count (SkMel2): 96.8%
- cell count (SkMel30): 102%
- cell count (SkMel5): 78.6%
- cell count (UACC257): 85.4%
- cell count (UACC62): 98.1%
- cell count (WM115): 97.3%
- cell count (WM1716): 82.1%
- cell count (WM1745): 79.1%
- cell count (WM3526): 86.9%
